Reference: article PMC4336329 (PLoS ONE, 2015)
Among all 310,000 compounds or so, about 14,000 (4.5%) showed an effect of 50% or more. Effects have a minus sign here. The list shows a part of the results.

molecular target: human ether-à-go-go-related gene (hERG) potassium channel (human, UniProt Q12809); assay: primary screen, population patch clamp on CHO cells stably expressing hERG
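Further: peak tail current of the secondary pulse compared with the same well before compound.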

Sequence of human ether-à-go-go-related gene (hERG) potassium channel (Q12809 whole entry, looked up): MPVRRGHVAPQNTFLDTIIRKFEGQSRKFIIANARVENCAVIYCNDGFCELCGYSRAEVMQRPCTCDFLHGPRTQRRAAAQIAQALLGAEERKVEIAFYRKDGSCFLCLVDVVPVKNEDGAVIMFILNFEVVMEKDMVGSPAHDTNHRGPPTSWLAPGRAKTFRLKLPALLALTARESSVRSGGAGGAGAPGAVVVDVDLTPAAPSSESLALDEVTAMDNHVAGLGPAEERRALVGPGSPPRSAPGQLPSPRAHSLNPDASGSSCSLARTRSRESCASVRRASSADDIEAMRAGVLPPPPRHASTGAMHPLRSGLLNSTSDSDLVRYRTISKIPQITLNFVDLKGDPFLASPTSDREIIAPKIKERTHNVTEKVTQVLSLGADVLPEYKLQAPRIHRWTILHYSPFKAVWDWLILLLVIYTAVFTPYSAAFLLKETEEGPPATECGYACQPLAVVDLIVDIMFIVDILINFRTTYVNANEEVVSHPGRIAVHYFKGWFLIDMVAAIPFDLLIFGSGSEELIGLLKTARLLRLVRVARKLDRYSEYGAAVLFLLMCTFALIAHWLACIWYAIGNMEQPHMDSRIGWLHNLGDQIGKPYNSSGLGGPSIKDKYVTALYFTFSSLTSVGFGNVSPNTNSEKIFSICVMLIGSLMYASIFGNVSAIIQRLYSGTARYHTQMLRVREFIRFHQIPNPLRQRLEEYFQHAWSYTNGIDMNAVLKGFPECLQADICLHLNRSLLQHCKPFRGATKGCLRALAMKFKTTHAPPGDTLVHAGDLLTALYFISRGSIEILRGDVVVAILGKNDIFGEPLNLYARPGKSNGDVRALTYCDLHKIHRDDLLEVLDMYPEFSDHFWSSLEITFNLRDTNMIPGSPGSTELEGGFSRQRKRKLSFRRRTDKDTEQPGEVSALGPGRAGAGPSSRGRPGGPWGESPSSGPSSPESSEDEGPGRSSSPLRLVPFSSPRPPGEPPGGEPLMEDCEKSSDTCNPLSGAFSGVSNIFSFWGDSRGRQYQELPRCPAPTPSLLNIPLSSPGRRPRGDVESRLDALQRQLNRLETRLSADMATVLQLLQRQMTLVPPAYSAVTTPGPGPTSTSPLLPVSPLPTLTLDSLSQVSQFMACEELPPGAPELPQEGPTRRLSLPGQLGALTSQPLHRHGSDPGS

SMILES	hERG current change (%, negative = inhibition) at 10uM
CCCCCCn1c(SCCCC)nc2c1c(=O)[nH]c(=O)n2C	1.97%
COc1ccc([N+](=O)[O-])cc1NC(=O)CCNC(=O)Cn1ccc2ccccc2c1=O	-7.71%
CSc1ccc(CN(C)C(=O)c2cc3ccccc3o2)cc1	21.2%
CCc1ccccc1N1C(=O)c2cccc3c(N4CCOCC4)c([N+](=O)[O-])cc(c23)C1=O	-18.3%
Cc1ccc(-c2nc3ncccc3o2)cc1NC(=O)Cc1ccc(Cl)cc1	17.1%
Nc1cc(=O)[nH]c(=O)n1CCCc1ccccc1	14%
CCC(NC(=O)COc1ccc([N+](=O)[O-])cc1)c1ccccc1 (centres unmarked)	-50.7%
O=[N+]([O-])c1ccc2[nH]c3nc4ccccc4nc3c2c1	20.5%
COC(=O)c1c(C(=O)OC)c(-c2ccc(OC)cc2)n2c1CS(=O)(=O)C2	0.716%
Cc1cc(Nc2ccccc2)n(-c2ccc(C(=O)O)cc2)n1	-43.7%
N#Cc1cc(-c2ccccc2)cn(Cc2c(Cl)cccc2Cl)c1=O	6.22%
C=CCOC(=O)/C(=C/c1ccco1)NC(=O)/C=C/c1ccccc1	-12.7%
Cc1cc(C)nc(NC(=O)c2c(-c3c(Cl)cccc3Cl)noc2C)n1	10.3%
COc1ccc2sc(NC(=O)NC(=O)c3c(Cl)cccc3Cl)nc2c1	2.85%
CC1(C)Cc2c(cnn2-c2cccc(F)c2)C(NC(=O)c2ccc[n+]([O-])c2)C1 (centres unmarked)	-3.95%
Nn1c(SCC(=O)Nc2ccc(Oc3ccccc3)cc2)nnc1C1CC1	-18.8%
COc1ccccc1NS(=O)(=O)c1cccc(NC(=O)Nc2ccc(Cl)cc2)c1	9.17%
Cc1cc(C)cc(OCC(=O)Nc2ccc(S(=O)(=O)Nc3ccccn3)cc2)c1	8.48%
Cn1c(=O)cc(OCCCC(=O)Nc2ccc3c(c2)OCCO3)c2ccccc21	6.67%
CCOC(=O)CCSc1nc(C)c2ccccc2n1	-15.7%
Cl.O=C(c1ccc(F)cc1)C(CCCCCC(CN1CCOCC1)C(=O)c1ccc(F)cc1)CN1CCOCC1 (centres unmarked)	-86.8%
COc1ccc(N=Cc2c(O)n(-c3cccc(C)n3)c(=O)c3ccccc23)c(OC)c1	3.83%
CCN(CC)CCNC(=O)c1nn(-c2ccc(C)cc2)c(=O)c2c1c1ccccc1n2C	-40.7%
COC(=O)c1cn(NC(=O)Cc2c(F)cccc2Cl)c(=O)c2ccccc12	11.9%
COc1ccc(-c2cc(C(=O)N3CC(C)CC(C)C3)c3ccccc3n2)cc1 (centres unmarked)	5.7%
CN1CCN(C(=O)/C(=C/c2cn(S(=O)(=O)N(C)C)c3ccccc23)NC(=O)c2ccccc2F)CC1	1.31%
O=C(N/N=C/c1c(Cl)[nH]c2ccccc12)c1sc2ccccc2c1Cl	7.49%

SMILES	hERG current change (%, negative = inhibition) at 10uM
N#CC1=C(N)Oc2ccc3ccc(O)cc3c2C1c1cccnc1 (centres unmarked)	6.2%
CCOc1ccc(CN2C(=O)c3ccccc3C2=O)cc1C(=O)NC1CC(C)(C)NC(C)(C)C1	-9.59%
COC(=O)c1cc(NC(=O)C2CC=CCC2C(=O)O)cc(C(=O)OC)c1 (centres unmarked)	12.4%
CCCCN(C)C(=O)c1ccc(S(=O)(=O)N2CCOCC2)cc1	17.3%
CCCCCn1c(S(=O)(=O)O)nc2ccccc21	-0.478%
CNC(=S)Nc1cc(S(=O)(=O)Nc2cc(Cl)ccc2Cl)ccc1N1CCCC1	-12.4%
COc1ccc(CSc2nc3ccccc3[nH]2)cc1	-5.72%
O=C(CSc1nncs1)NC(=O)NC1CCCC1	37.6%
O=C(CN1CCN(S(=O)(=O)N2CCOCC2)CC1)Nc1cc(Cl)ccc1Cl	-55.2%
COc1ccc(NC(=O)N2CCc3ccccc3C2)cc1	5.74%
CC(CCc1ccccc1)NC(=O)CN1CCN(Cc2ccccc2)C1=O (centres unmarked)	-18.2%
CCOC(=O)N1CCN(c2nc(C)cc(C(F)(F)F)n2)CC1	20.1%
CCC(=O)Nc1cc(-c2nn(C)c(=O)c3ccccc23)ccc1OC	-11.4%
COc1cc(/C=C/C(=O)Nc2ccc(C)cc2)cc(OC)c1OC	-2.49%
O=[N+]([O-])c1ccc(-c2cn3nc(-c4ccccc4)c(-c4ccccc4)nc3n2)cc1	1.96%
CCn1c(C)nc2cc(C(=O)N/N=C/c3ccc(O)cc3)ccc21	12.8%
COC(=O)c1ccc(NC(=O)COc2ccc(S(=O)(=O)N3CCCCC3)cc2)cc1	-9.57%
CCOC(=O)[C@H]1[C@H]2COc3ccc(OC)cc3[C@@H]2N2C(=O)c3ccc(C)cc3NC(=O)[C@@]12C	-8.9%
COC(CNC(=O)[C@H](CSCc1ccccc1)N1Cc2ccccc2C1=O)OC	-3.49%
O=C(CSCc1ccc(Cl)cc1)N/N=C/c1ccccc1	-13.5%
O=C(NNS(=O)(=O)c1ccccc1[N+](=O)[O-])c1cccc([N+](=O)[O-])c1	7.58%
CCOC(=O)COc1nc(Nc2ccccc2C)nc(N(C)C)n1	1.92%
C=CCOc1ccc(C2=NO[C@@H]3[C@@H]4C[C@@H]([C@H]5C(=O)N(C)C(=O)[C@@H]45)[C@H]23)cc1	-6.16%
O=C(Oc1ccc(-c2csnn2)cc1)c1cccs1	17.1%
COC(=O)C1=CN(c2ccc(F)cc2)C=C(C(=O)OC)C1c1ccc([N+](=O)[O-])cc1	-20.2%
Cc1ccc(CS(=O)(=O)c2nc3c(c(N(C)C)n2)CCCC3)cc1	-20.5%
